Among all 340,000 compounds or so, about 1,000 (0.29%) were called active. The shares of active, inactive and inconclusive entries below differ from those in the screen. Cut-off read from the data, not from the text of the source: inconclusive = inhibition above about 29% without an active follow-up result; inactive = below that.
target: Genome polyprotein (Dengue virus type 2 (strain 16681-PDK53)) (UniProt P29991); test: Dengue-2 NS5 methyltransferase inhibitors, primary screen, biochemical, confirmation dose response (AID 588689); settings: Dengue-2 NS5 methyltransferase capping enzyme assay, at 25 µM, stronger effect = higher value

| SMILES | inhibition |
| --- | --- |
| CN(C)CCC(c1ccc(Br)cc1)c1ccccn1 (stereo not given) | inconclusive: 34.4% |
| O=C(O)c1cccc2c1C(=O)c1ccc(N3CCCC3)cc1S2(=O)=O | inconclusive: 65.5% |
| CC(C)CSC1=NSC2=NC(=O)/C(=C\c3cccs3)C(=N)N12 | inactive: 24.3% |
| CC(C)NC(=O)CSc1nccc(-c2cccs2)n1 | inactive: 6.26% |
| CCc1noc(C)c1C(=O)NCCc1ccc(OC)c(OC)c1 | inactive: -2.74% |
| Cc1c(C2Nc3ccccc3NC3=C2C(=O)CC(C)(C)C3)cnn1C (stereo not given) | inconclusive: 62.1% |
| CCOc1ccc(C2C(C#N)=C(N)SC(N)=C2C#N)cc1OCC | inconclusive: 97.5% |
| CN(C)CCCN1C(=O)c2cccc3c([N+](=O)[O-])ccc(c23)C1=O | inconclusive: 66.9% |
| O=C(COC(=O)CSc1ccc([N+](=O)[O-])cc1)NCC1CCCO1 (stereo not given) | inactive: 5.91% |
| O=[N+]([O-])c1ccc(N2CCN(Cc3ccccc3)CC2)c2c1no[n+]2[O-] | inconclusive: 56.1% |
| O=C(O)C(c1ccccc1)N1C(=O)/C(=C\c2ccc(-c3ccc(Br)cc3)o2)SC1=S (stereo not given) | inconclusive: 113% |
| COc1cccc2c1C(=O)c1c(O)c3c(c(O)c1C2=O)C[C@@](O)(C(=O)CO)C[C@@H]3OC1CC(N)C(O)C(C)O1 (stereo not given in full) | inconclusive: 41.8% |
| COc1ccc(CNC(=O)C(C#N)c2nc3ccccc3nc2N2CCCC2)cc1 (stereo not given) | inconclusive: 31.6% |
| CCOC(=O)C1CCCN(c2nc3ccccc3nc2C(C#N)C(=O)OCC)C1 (stereo not given) | inconclusive: 30.9% |
| CCO/C(C)=N/n1c2nc3ccccc3nc2c2c(=O)n(C3CCCC3)c(C)nc21 | inconclusive: 33% |
| N#C/C(=C\c1ccc([N+](=O)[O-])cc1)C(=O)Nc1ccccc1O | inactive: 8.94% |
| CC1=CC(C)(C)Nc2ccc(OC(=O)CN3C(=O)c4cccc5cccc(c45)C3=O)cc21 | inconclusive: 66.7% |
| O=[n+]1c2c(n([O-])c3cc(F)c(N4CCCC4)cc31)CCCC2 | inconclusive: 137% |
| COc1ccc(CNC(=O)C(C)N2CCN(S(=O)(=O)c3ccccc3F)CC2)cc1 (stereo not given) | inactive: -2.2% |
| COc1cc(/C=C2\SC(=S)N(C(Cc3ccccc3)C(=O)O)C2=O)ccc1O (stereo not given) | inconclusive: 58.2% |
| C=CCn1c(O)c(CN2CCOCC2)c(C)c(C#N)c1=O | inconclusive: 64.8% |
| O=C(O)c1ccc(F)c(S(=O)(=O)Nc2ccccc2Cl)c1 | inactive: 4.09% |
| CCOc1ccc2nc3cc(NCc4ccc(OC)cc4)ccc3c(N)c2c1 | inconclusive: 144% |
| CCNS(=O)(=O)c1ccc(NC(=O)Nc2ccc3c(c2)OCO3)cc1 | inactive: -8.45% |
| Cc1ccc2c(c1)NC(=O)c1cccnc1N2 | inactive: -0.54% |
| OCC1OC2C(NC(=S)N2c2ccccc2)C(O)C1O (stereo not given) | inactive: 0.77% |
| CCC1(C)NC(=O)N(CC(=O)N2CCC(Cc3ccccc3)CC2)C1=O (stereo not given) | inactive: -9.76% |
| C=CC(n1cncn1)C(O)(c1ccccc1)c1ccccc1 (stereo not given) | inactive: -1.2% |

| SMILES | inhibition |
| --- | --- |
| CCN1C(=O)[C@@H]2[C@@H](c3ccc(-c4ccc(OC)cc4)c(OC)c3)N3CCCC[C@@]3(C(=O)OC)[C@@H]2C1=O | inactive: 17.5% |
| Cc1cccc(C2(c3cccc(C)c3)OC(=O)c3ccccc32)c1 | inconclusive: 45% |
| Cc1ccc(S(=O)(=O)N2CCN(Cc3cccnc3)CC2)cc1 | inactive: 2.57% |
| CC1N(C)c2cc(NC(=O)c3ccco3)ccc2C1(C)C (stereo not given) | inconclusive: 46.8% |
| Clc1ccccc1N=Nc1ccccn1 | inconclusive: 122% |
| CSCC(C)N1CCC(n2nccc2NC(=O)CCCc2ccccc2)CC1 (stereo not given) | inconclusive: 43.1% |
| CSc1nc2ccc3nc(NC(=O)c4ccccc4)sc3c2s1 | inconclusive: 30.5% |
| Nc1nc2c(s1)CCc1c-2cnn1-c1ccccc1 | inconclusive: 39.6% |
| Cc1ccc2[nH]c(=O)c3cc(C(=O)N4CCN(C(=O)c5ccco5)CC4)sc3c2c1 | inconclusive: 38.5% |
| Nc1ccc2c(c1)Oc1ccccc1C=C2 | inconclusive: 44.9% |
| O=C(CSc1nncs1)NCCNC(=O)CSc1nncs1 | inactive: -2.96% |
| COc1cccc2c1C(=O)c1c(O)c3c(c(O)c1C2=O)CC(O)(C(C)=NNC(=O)c1ccc(Cl)c(Cl)c1)CC3OC1CC(N)C(O)C(C)O1 (stereo not given) | inconclusive: 41.8% |
| COc1ccc(C2c3ccc(O)cc3Oc3ncn(CCCO)c(=N)c32)cc1OC (stereo not given) | inconclusive: 135% |
| Cc1nn(-c2ccccc2)c2c1C(c1ccc(Br)s1)C(C#N)=C(N)O2 (stereo not given) | inconclusive: 44.5% |
| COCCN1C=C2C(=O)C(C)(OC(=O)CCC(=O)OC)C(=O)C(Br)=C2C=C1c1ccc(OC)cc1 (stereo not given) | inconclusive: 71.2% |
| Cc1cccc(-n2cnc3sc(C)c(C)c3c2=O)c1 | inactive: 3.09% |
| O=C(O[C@@H]1OC2COC(=O)c3cc(O)c(O)c(O)c3-c3c(cc(O)c(O)c3O)C(=O)O[C@@H]([C@H]1O)[C@@H]2O)c1cc(O)c(O)c(O)c1 | inconclusive: 71.3% |
| O=C(c1nc2n(n1)C(c1ccc(Cl)cc1)C=C(c1ccccc1)N2)N1CCOCC1 (stereo not given) | inconclusive: 31.2% |
| CCCCN(CCCC)c1nc2ccccc2nc1C(C#N)C(=O)NCCCOC (stereo not given) | inconclusive: 43.8% |
| N#C/C(=C\c1cc(Cl)cc(Cl)c1O)C(=O)NC1CCCCC1 | inconclusive: 42.3% |
| COCCCNC(=O)c1ccc2c3c(onc13)-c1ccccc1C2=O | inconclusive: 166% |
| CN1C(=O)/C(=C\c2ccccc2OCc2ccccc2)SC1=S | inactive: -2.61% |
| Cc1c(CN2CCCCC2)c(O)n(CCCO)c(=O)c1C#N | inconclusive: 30.6% |
| O=C(c1ccccc1)c1c2c(cc3sc4ccccc4[n+]13)-c1cccc3cccc-2c13 | inconclusive: 35.5% |
| Cc1ccc(N2C(=O)c3ccccc3C2(O)c2ccccc2)cc1 (stereo not given) | inactive: -0.39% |
| CC(=O)C1=C(O)C(=O)OC1c1ccc(Cl)cc1 (stereo not given) | inactive: -3.11% |
| N=C1/C(=C\c2ccc(OC(=O)c3ccccc3Cl)cc2)C(=O)N=C2SC(N3CCOCC3)=NN12 | inactive: 34.8% |
